# Reference: PubChem BioAssay AID504333 (National Center for Advancing Translational Sciences (NCATS), 2011)
# About 16,000 (4.4%) of roughly 360,000 compounds were called active. The inconclusive results got no clear call from the source; some entries with a clear call stand among them for comparison. Calls follow the shape of the dose curve; as a rule, active = well fitted inhibition curve with a large enough effect; inconclusive = small, poorly fitted or top-dose-only effect; inactive = no such curve, though single readings can be large or run the other way. Potencies of inconclusive entries are doubtful fits and often do not repeat.
# Target: Bromodomain adjacent to zinc finger domain protein 2B (Homo sapiens) (UniProt Q9UIF8)
# Sequence of UniProt Q9UIF8 (Q9UIF8 whole entry, looked up, the tested form may be a part): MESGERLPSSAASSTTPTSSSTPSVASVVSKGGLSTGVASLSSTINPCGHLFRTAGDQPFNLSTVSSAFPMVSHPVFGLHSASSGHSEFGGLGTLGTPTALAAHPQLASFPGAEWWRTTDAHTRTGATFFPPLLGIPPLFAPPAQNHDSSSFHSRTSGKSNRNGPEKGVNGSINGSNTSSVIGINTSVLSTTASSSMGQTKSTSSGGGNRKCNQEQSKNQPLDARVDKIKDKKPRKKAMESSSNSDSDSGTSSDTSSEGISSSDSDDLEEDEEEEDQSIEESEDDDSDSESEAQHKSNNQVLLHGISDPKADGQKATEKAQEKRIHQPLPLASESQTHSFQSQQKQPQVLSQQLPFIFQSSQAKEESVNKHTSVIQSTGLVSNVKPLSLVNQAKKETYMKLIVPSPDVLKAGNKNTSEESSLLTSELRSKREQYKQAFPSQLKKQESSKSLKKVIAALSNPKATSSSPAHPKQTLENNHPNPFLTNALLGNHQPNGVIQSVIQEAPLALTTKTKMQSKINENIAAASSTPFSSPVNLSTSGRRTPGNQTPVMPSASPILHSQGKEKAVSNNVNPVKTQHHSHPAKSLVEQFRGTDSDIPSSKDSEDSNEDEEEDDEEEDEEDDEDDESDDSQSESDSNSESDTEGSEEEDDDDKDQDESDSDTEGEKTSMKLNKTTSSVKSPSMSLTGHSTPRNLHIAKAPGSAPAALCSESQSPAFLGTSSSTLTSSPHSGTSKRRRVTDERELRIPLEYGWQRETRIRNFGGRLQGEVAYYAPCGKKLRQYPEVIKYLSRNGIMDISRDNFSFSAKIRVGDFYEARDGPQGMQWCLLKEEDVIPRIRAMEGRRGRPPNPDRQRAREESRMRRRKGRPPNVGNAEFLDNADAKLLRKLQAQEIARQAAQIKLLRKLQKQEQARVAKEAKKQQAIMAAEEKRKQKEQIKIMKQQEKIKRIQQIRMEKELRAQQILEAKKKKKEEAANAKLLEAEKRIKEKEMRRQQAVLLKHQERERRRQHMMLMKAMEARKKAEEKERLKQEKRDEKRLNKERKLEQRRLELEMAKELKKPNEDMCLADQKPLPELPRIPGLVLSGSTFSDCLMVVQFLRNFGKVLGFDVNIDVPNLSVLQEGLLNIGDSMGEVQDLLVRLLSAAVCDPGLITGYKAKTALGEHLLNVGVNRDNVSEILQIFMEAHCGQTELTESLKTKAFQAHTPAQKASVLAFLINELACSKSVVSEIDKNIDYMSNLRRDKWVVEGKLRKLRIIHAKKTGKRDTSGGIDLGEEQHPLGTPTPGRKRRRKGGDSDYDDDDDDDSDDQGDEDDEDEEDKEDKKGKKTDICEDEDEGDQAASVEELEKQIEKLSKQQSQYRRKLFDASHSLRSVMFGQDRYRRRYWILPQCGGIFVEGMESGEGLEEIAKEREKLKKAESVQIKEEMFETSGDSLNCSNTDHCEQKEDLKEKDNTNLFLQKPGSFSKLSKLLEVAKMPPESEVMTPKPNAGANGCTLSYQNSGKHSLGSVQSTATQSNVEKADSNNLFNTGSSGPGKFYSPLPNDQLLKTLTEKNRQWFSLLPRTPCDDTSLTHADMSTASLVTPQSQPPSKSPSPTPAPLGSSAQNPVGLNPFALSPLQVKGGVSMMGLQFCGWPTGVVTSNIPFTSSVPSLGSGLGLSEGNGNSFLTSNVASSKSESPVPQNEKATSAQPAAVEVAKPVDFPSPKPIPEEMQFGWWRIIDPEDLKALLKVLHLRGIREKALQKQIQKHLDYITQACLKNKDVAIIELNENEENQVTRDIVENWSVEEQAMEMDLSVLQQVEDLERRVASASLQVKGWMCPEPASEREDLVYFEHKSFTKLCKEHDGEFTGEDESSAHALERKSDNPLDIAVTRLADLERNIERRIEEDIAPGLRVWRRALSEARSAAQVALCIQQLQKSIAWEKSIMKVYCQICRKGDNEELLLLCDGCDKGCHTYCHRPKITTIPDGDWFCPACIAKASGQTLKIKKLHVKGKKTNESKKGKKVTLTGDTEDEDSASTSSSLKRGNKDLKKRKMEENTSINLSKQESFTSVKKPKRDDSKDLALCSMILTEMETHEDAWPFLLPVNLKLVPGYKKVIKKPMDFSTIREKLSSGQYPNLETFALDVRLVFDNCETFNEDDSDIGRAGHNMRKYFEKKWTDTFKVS
# Assay: qHTS Assay for Inhibitors of BAZ2B; also: nearly all actives have a fitted effect of over 60% in size
# Conditions: AlphaScreen BAZ2B-H3K14Ac peptide displacement; activity change, negative = inhibition: at 114 µM (top of the series)
# Summary of the method: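 Inhibition is scored as reduced AlphaScreen emission. The BAZ2B/b-H3(5-23)K14Ac complex (50 nM each) in PBS pH 7.4, 0.01% Tween-20 meets compound (up to 110 uM) for 30 min at RT before bead addition.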
# % is scaled to controls: 0 for no effect and ±100 for the full control effect; potency is read from the fitted curve at half-maximal effect; tags tell the direction and shape of the fitted curve.
Compound,"activity change, negative = inhibition",Potency
Cc1ccccc1CC(=O)Nc1ccc(S(=O)(=O)N2CCN(C)CC2)cc1,inactive: -4.91%,–
S=c1[nH]c2cc(Br)cnc2[nH]1,inactive: -23.8%,–
Cc1cc(C(=O)COC(=O)c2ccc3c(c2)NC(=O)CS3)c(C)n1CC1CCCO1 (stereo unspecified),–,"inconclusive: 50.1 µM [inhibitor, partial curve]"
CCNc1nc(NCC)n2c(SCC(=O)Nc3cccc(Cl)c3)nnc2n1,–,"inconclusive: 100 µM [inhibitor, single point]"
COc1ccc(CN2CCN(C(=O)c3cccc4ccccc34)CC2)cc1Br,–,active: 50.1 µM
Cc1ccc(NC(=O)c2[nH]cnc2C(=O)NN)cc1,–,"inconclusive: 2 µM [inhibitor, full curve, poor fit]"
O=C1c2ccncc2C(=O)N1CO,–,"inconclusive: 89.1 µM [inhibitor, single point]"
COc1ccc(N(C(=O)c2snc(C(N)=O)c2N)C(C(=O)NC2CCCCC2)c2ccc(C)o2)c(OC)c1 (stereo unspecified),–,"inconclusive: 70.8 µM [inhibitor, single point]"
Cc1cccc(N2CCN(C(=O)Cn3ncc4c5ccccc5n(C)c4c3=O)CC2C)c1 (stereo unspecified),inactive: 1.15%,–
COc1ccc(O[C@H]2C=C[C@@H](c3ccccc3)O[C@@H]2COC(=O)CC/C(C)=N/O[C@@H](C)c2cc(-c3c(C)cc(C)cc3C)no2)cc1,inactive: -5.04%,–
Cc1cc(/C=N/n2c(COc3ccccc3)nc3ccccc3c2=O)c(O)c([N+](=O)[O-])c1,–,active: 4.47 µM
CCC(c1nnnn1CCc1ccccc1)N(Cc1ccco1)Cc1cc2cccc(C)c2[nH]c1=O (stereo unspecified),–,"inconclusive: 79.4 µM [inhibitor, single point]"
O=C(Oc1ccc2ccc(O)cc2c1)c1ccccc1Cl,–,"inconclusive: 79.4 µM [inhibitor, single point]"
CCOC(=O)C(CC)n1nc(C)c2c(C)n(-c3ccc(C)cc3)nc2c1=O (stereo unspecified),inactive: -1.37%,–
N#CC1=C(N)Oc2n[nH]c(-c3ccccc3)c2C1c1cccc(OC(=O)N2CCOCC2)c1 (stereo unspecified),inactive: -34.2%,–
O=C1CSC(c2cccc([N+](=O)[O-])c2)N1CCc1ccccc1 (stereo unspecified),–,"inconclusive: 79.4 µM [inhibitor, single point]"
NC(N)=NC1=NC(=O)C(Cc2ccccc2)S1 (stereo unspecified),–,"inconclusive: 56.2 µM [inhibitor, partial curve]"
CCN(CC)C(=O)C1CCN(c2ncnc3c2cnn3-c2ccc(C)cc2C)CC1,inactive: -0.424%,–
COc1ccc(-n2cc(-c3ccc4c(c3)OCO4)n(CC(=O)Nc3cccc(C)c3C)c2=O)c(OC)c1,–,"inconclusive: 31.6 µM [inhibitor, partial curve]"
CSc1ccc(C(c2c(C)[nH][nH]c2=O)c2c(C)[nH][nH]c2=O)cc1,inactive: -4.99%,–
CC(=O)N1CCc2c(sc(NC(=O)Cc3ccc(F)cc3)c2C#N)C1,inactive: 0.862%,–
Cc1ccc2cc(/C=N/NC(=O)c3ccc(F)cc3)c(Cl)nc2c1,inactive: -7.59%,–
CN(CC(=O)Nc1cccc(F)c1)C(=O)c1cn2ccccc2n1,–,"inconclusive: 79.4 µM [inhibitor, single point]"
O=C(COc1ccc(Br)cc1)Nc1ccc([N+](=O)[O-])cn1,–,"inconclusive: 89.1 µM [inhibitor, single point]"

Compound,"activity change, negative = inhibition",Potency
CCC(C)NC(=O)c1ccc2nc(CCc3ccccc3)oc2c1 (stereo unspecified),inactive: 2.82%,–
Nc1ccc2nc(-c3ccccc3)[nH]c2c1,–,"inconclusive: 89.1 µM [inhibitor, single point]"
COc1ccc(-n2c(Cc3cccn3C)nnc2SCC(=O)N2CCCc3ccccc32)cc1,–,"inconclusive: 79.4 µM [inhibitor, single point]"
Cc1oc2c(c1C(=O)Nc1cccc3ccccc13)CCCC2,inactive: -1.59%,–
CCOc1ccc(NC(=O)c2sccc2-n2cccc2)cc1,inactive: -18.3%,–
CCOC(=O)C1=C(CSc2nc(-c3ccccc3)ccc2C#N)OC(N)=C(C#N)C1c1cccnc1 (stereo unspecified),inactive: 0.811%,–
CN1CCCC1CCNc1ccc2oc3ccccc3c(=O)c2c1 (stereo unspecified),–,"inconclusive: 79.4 µM [inhibitor, single point]"
Cc1cc(OCCn2cc(/C(N)=N/O)c3ccccc32)ccc1Cl,–,"inconclusive: 79.4 µM [inhibitor, single point]"
COc1ccc(S(=O)(=O)/N=C2\C=C(Nc3ccc(O)cc3)C(=O)c3ccccc32)cc1,–,active: 8.91 µM
CC1(C)CC(=O)c2c(oc3c(Cl)cc(NS(=O)(=O)c4ccc(Br)cc4)cc23)C1,inactive: -1.05%,–
Cc1ccc(CN2CCN(/N=C/c3cccnc3)CC2)c(C)c1,–,"inconclusive: 50.1 µM [inhibitor, partial curve]"
Cc1cc2nc(-c3ccc(SCc4ccccn4)nc3)[nH]c2cc1C,inactive: -32.7%,–
CC(=O)N1CCc2c(sc3c2c(=O)n(-c2cc(Cl)ccc2C)c(=O)n3Cc2ccccc2F)C1,–,"inconclusive: 44.7 µM [inhibitor, partial curve]"
Cc1ccc(C)c(NC(=O)CSc2nnc(-c3cc4occc4n3C)n2-c2ccccc2C)c1,–,"inconclusive: 28.2 µM [inhibitor, partial curve]"
CCc1ccccc1NC(=O)[C@@H](c1ccccc1)N1Cc2ccccc2C1=O,inactive: -13.1%,–
COC(=O)c1cc(NCc2ccc3c(c2)OCO3)ccc1N1CCOCC1,–,"inconclusive: 56.2 µM [inhibitor, partial curve]"
Cc1cc(/C=N/n2c(COc3ccccc3C)nc3ccccc3c2=O)c(O)c([N+](=O)[O-])c1,–,"inconclusive: 7.94 µM [inhibitor, full curve]"
CCn1c2ccccc2c2cc(NC(=O)c3ccc(=O)oc3)ccc21,–,"inconclusive: 79.4 µM [inhibitor, single point]"
CCCc1nc2oc3cc(OC)ccc3c(=O)c2c(=O)n1Cc1ccco1,–,"inconclusive: 89.1 µM [inhibitor, single point]"
CCCCCC(=O)Nc1cccc(C2=NOC3(C2)C[C@@H](C(N)=O)N(C(=O)c2cc([N+](=O)[O-])cc([N+](=O)[O-])c2C)C3)c1 (stereo partly specified),–,"inconclusive: 89.1 µM [inhibitor, single point]"
CCOC(=O)c1cc(S(=O)(=O)NCc2cccc(Cl)c2)[nH]n1,–,active: 50.1 µM
CC(=O)/C(N=Nc1c(C)n(C)n(-c2ccccc2)c1=O)=C(\C)O,–,"inconclusive: 89.1 µM [inhibitor, single point]"
O=C(O)/C=C\C(=O)Nc1ccc(N2CCN(c3ccc(F)cc3)CC2)cc1,–,"inconclusive: 14.1 µM [inhibitor, full curve]"
CC(=O)Nc1ccc(CN2CCN(c3cccc(C(F)(F)F)c3)CC2)cc1,–,active: 50.1 µM

Compound,"activity change, negative = inhibition",Potency
CCC(CO)Nc1ccc(-c2nn(C)c(=O)c3ccccc23)cc1[N+](=O)[O-] (stereo unspecified),–,"inconclusive: 31.6 µM [inhibitor, full curve]"
CCC(=O)N1CCc2cc(Br)cc(S(=O)(=O)CCC(=O)N3CCN(c4cc(C)ccc4C)CC3)c21,–,"inconclusive: 89.1 µM [inhibitor, single point]"
Cc1ccc(N2CCN(C(=O)CNS(=O)(=O)c3ccc(Br)s3)CC2C)cc1 (stereo unspecified),–,"inconclusive: 79.4 µM [inhibitor, single point]"
CC1C/C(=C/c2cccs2)C(=O)/C(=C/c2cccs2)C1 (stereo unspecified),–,"inconclusive: 10 µM [inhibitor, full curve]"
COc1ccc(N2CCN(CCCNC(=O)c3cc4sccc4n3C)CC2)cc1,–,active: 39.8 µM
Cn1c(N)c(C(=O)Nc2ccc(-c3ccccc3)cc2)sc1=S,–,active: 50.1 µM
CCN1/C(=C/c2ccc3cc(C)ccc3[n+]2CC)Sc2ccccc21,–,active: 44.7 µM
O=C(Nc1ccc2snnc2c1)N1CCOCC1,inactive: 8.68%,–
COC(=O)CSC1=C(C#N)C(=O)NC(c2ccccc2)S1 (stereo unspecified),–,active: 50.1 µM
CCOC(=O)c1c(CN(C)C)n(-c2ccccc2)c2cc(Br)c(OC)cc12,–,"inconclusive: 79.4 µM [inhibitor, single point]"
COc1ccc(OC)c(NC(=O)c2cn(CC(C)C)c(=O)c3cc(OC)c(OC)cc23)c1,–,"inconclusive: 39.8 µM [inhibitor, single point]"
Cc1ccc(C(C(=O)NCc2ccco2)N(Cc2ccco2)C(=O)CNC(=O)c2ccco2)cc1 (stereo unspecified),–,"inconclusive: 89.1 µM [inhibitor, single point]"
O=c1[nH]c2ccc(NCc3ccc(-c4ccccc4)o3)cc2[nH]1,–,"inconclusive: 63.1 µM [inhibitor, partial curve, poor fit]"
Cc1ccc(Cn2c(=O)n(CCCCC(=O)NCc3ccccc3Cl)c(=O)c3ccccc32)cc1,inactive: 2.22%,–
CCn1c(=N)n(CC(=O)C23CC4CC(CC(C4)C2)C3)c2ccccc21,–,"inconclusive: 39.8 µM [inhibitor, full curve]"
Cc1cc(Cn2nc(C(=O)NCc3cccs3)cc2-c2ccccc2)on1,inactive: -3.19%,–
CC(NO)/C(=N\O)c1cccs1 (stereo unspecified),–,"inconclusive: 39.8 µM [inhibitor, partial curve]"
CC(=O)n1cc(Nc2ccc([N+](=O)[O-])cc2)c2ccccc21,–,"inconclusive: 79.4 µM [inhibitor, single point]"
O=C(O)c1ccc(-c2ccc(/C=c3/sc4nc5ccccc5n4c3=O)o2)cc1Cl,–,active: 39.8 µM
Cc1ccc(NC(=O)C2CCN(C(=O)c3ccc(Cl)cc3)CC2)nc1,inactive: -14.5%,–
O=C(NNC(=S)Nc1ccc(Cl)c(Cl)c1)c1ccccn1,–,active: 4.47 µM
NS(=O)(=O)c1ccc(NC(=O)c2cccc(N3C(=O)c4ccccc4C3=O)c2)cc1,–,"inconclusive: 79.4 µM [inhibitor, single point]"
CCOc1ccc(OCCOCCN2CCCC2)cc1,–,"inconclusive: 89.1 µM [inhibitor, single point]"
